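Step 1: Grow cells in 96-well plates. Step 2: Expose to compound for 48 hours at 5 concentrations. Step 3: Interpolate endpoints linearly; if unreached, use highest concentration. GI50 is the concentration that inhibits growth by half.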 Active and inactive are the calls of the source. Cut-off read from the data, not from the text of the source: active = GI50 up to about 1.1 µM and inactive = higher.
System: NCI-H322M
Assay: growth of human tumour cells (NCI), 48 h

| Compound | GI50 |
| --- | --- |
| CN(C)/C=N/NC(=O)/C(C#N)=C/N(C)C | inactive: > 100 µM |
| Clc1ccc(/C(=C\c2ccccc2)Cn2ccnc2)cc1 | inactive: 27.2 µM |
| CCOC(=O)C12C(=O)CCN1CCc1ccccc1C2C (configuration not stated) | inactive: > 100 µM |
| O=C1c2ccccc2C(=O)c2c(OCC3CO3)ccc(OCC3CO3)c21 (configuration not stated) | inactive: 8.73 µM |
| CC(=O)Nc1ncc2c(n1)-c1ccccc1OC2c1ccccc1 (configuration not stated) | inactive: > 100 µM |
| CCCO/N=[N+](\[O-])N(CC)CC | inactive: > 100 µM |
| NCCc1nc(-c2nc(C(=O)O)cs2)cs1 | inactive: > 100 µM |
| COc1ccc(NCc2cccc3c(=O)c4ccc(Cl)cc4oc23)cc1 | inactive: > 100 µM |
| CCC[C@H](C)C[C@H](C)C[C@H](C)/C=C(\C)[C@@H](O)[C@@H](C)C(=O)CC | inactive: 22.7 µM |
| Fc1ccccc1C1SCC2=Nc3ccccc3CN21 (configuration not stated) | inactive: 65.2 µM |
| OCc1cc2c(cn1)[nH]c1ccc(NCc3ccccc3)cc12 | inactive: 23.7 µM |
| CSc1ccc2c(cc1=O)[C@@H](NC(=O)c1ccc([N+](=O)[O-])cc1)CCc1cc(O)c(O)c(O)c1-2 | inactive: 88.3 µM |
| CCC1=CC2CC(C(=O)OC)C1(N(C)C)C2=O (configuration not stated) | inactive: > 100 µM |
| CCOP(=O)(O)C(Nc1ccc(/N=N/c2ccccc2)cc1)c1ccc(C(Nc2ccc(/N=N/c3ccccc3)cc2)P(=O)(O)OCC)cc1 (configuration not stated) | inactive: 23.2 µM |
| O=C(O)C12C=CC(C1)c1ccccc12 (configuration not stated) | inactive: > 100 µM |
| COCc1cc2c(s1)C(=O)C1=C(C2=O)C2(C=C(Br)C(=O)C(Br)=C2)CCN1 | inactive: 12.8 µM |
| CCCCCCCCCCCCCCCCCC(CCCCCCCCCCCCCCCCC)OP(=O)(O)O | inactive: > 100 µM |
| CC1=CC2=C(C=O)C(=O)[C@](C)(O)[C@@H](O)C2=CO1 | inactive: 41.9 µM |
| C/C(CCn1[nH]c(=O)ccc1=O)=N\NC(=O)C(N)=O | inactive: > 100 µM |
| CCOC(=O)CC(N1CC1)N1CC1 | inactive: > 10 µM |
| COc1ccc(/C(Cl)=C/c2cc(OC)ccc2OC)cc1 | inactive: > 100 µM |
| COc1ccc2oc(=O)cc(C)c2c1 | inactive: > 100 µM |
| CN(Cc1nc2c(N)nc(N)nc2nc1N)c1ccc(C(=O)NC(CCC(=O)O)C(=O)O)cc1 (configuration not stated) | inactive: 6.12 µM |

| Compound | GI50 |
| --- | --- |
| Cc1ccccc1C1OC1C(=O)c1ccccc1N (configuration not stated) | inactive: 72.9 µM |
| CCCCSC1=N/C(=C\c2ccco2)C(=O)N1 | inactive: > 100 µM |
| Cc1nc2ccc(F)cc2c2c1CCO2 | inactive: > 100 µM |
| COc1ccc(/N=N/c2c(-c3ccccc3)nn(C(=O)CC(=O)Nc3ccc(OC)cc3)c2-c2ccccc2)cc1 | inactive: > 100 µM |
| CCN(CC)c1ccc2cc(-c3csc(C)n3)c(=O)oc2c1 | inactive: > 100 µM |
| CC(=O)OC1=NN=C2COC(c3ccccc3OC(C)=O)=NN2C1 | inactive: > 50 µM |
| COC1=C(OC)C(=O)C(Cc2c(-c3ccccc3)nc3sc(Cl)cn23)=C(C)C1=O | inactive: 19.6 µM |
| COC(=O)CCCCC/C(=C\C(=O)C(Cl)(Cl)Cl)OC | inactive: 26.2 µM |
| c1ccc(C2C(=P(c3ccccc3)(c3ccccc3)c3ccccc3)P=PC2[P+](c2ccccc2)(c2ccccc2)c2ccccc2)cc1.c1ccc([B-](c2ccccc2)(c2ccccc2)c2ccccc2)cc1 (configuration not stated) | inactive: 1.35 µM |
| CCc1ccc(/C=C/C(=O)C2CN(CC)CCC2(O)/C=C/c2ccc(CC)cc2)cc1 (configuration not stated) | inactive: 12.1 µM |
| CC(C)(CN1CCCCC1)C(/C=C/c1ccccc1)=N\NC(=O)N/N=C(/C=C/c1ccccc1)C(C)(C)CN1CCCCC1 | inactive: 2.65 µM |
| Oc1ccc2ccccc2c1/N=N/c1cccc2ccccc12 | inactive: > 100 µM |
| Cc1c([C@H](C)[C@@H]2NC[C@@H](C)C[C@H]2O)ccc2c1C[C@H]1[C@H]2CC=C2C[C@@H](O)CC[C@@]21C [VERATRAMINE] | inactive: 11.9 µM |
| Clc1ccc(-c2nc3cc(Cl)ccc3[nH]2)cc1 | inactive: 43.6 µM |
| C[n+]1c2ccccc2c(C(=O)Nc2ccc(S(=O)(=O)Nc3ccnn3-c3ccccc3)cc2)c2ccccc21 | inactive: > 100 µM |
| CC(=O)OCCOCNC(=S)N/N=C(\C)c1cnc2ccccc2n1 | inactive: 25.1 µM |
| COc1ccc(NS(=O)(=O)c2ccc(NC(NC(=O)CC(C)C)(C(F)(F)F)C(F)(F)F)cc2)nn1 | inactive: > 100 µM |
| COC(=O)C1CCC(=O)N1C(c1ccccc1)c1ccc(OC)c(OC)c1 (configuration not stated) | inactive: > 100 µM |
| COc1ccc(/C(=N/O)c2ccccc2C2=Nc3ccccc3C(NCc3ccccc3)O2)cc1C (configuration not stated) | inactive: > 100 µM |
| O=C1CCCCC/C1=C\c1cccc([N+](=O)[O-])c1 | inactive: 44.5 µM |
| c1ccc(COc2cccc3ccc[n+](Cc4ccccc4)c23)cc1 | inactive: 11.6 µM |
| CCOc1ccc(C(C)c2cc3c(cc2OC)OCO3)cc1 (configuration not stated) | active: 0.416 µM |
| CC(=O)OC1[C@H](n2ccnc2)C[C@H]2[C@@H]3CC=C4CC(N5CCCC5)CC[C@]4(C)[C@H]3CC[C@]12C (some centres not stated) | inactive: > 100 µM |

| Compound | GI50 |
| --- | --- |
| COC(=O)/N=C(\NC(=O)OC)Nc1ccc(Oc2ccccc2)cc1NC=O | active: 0.551 µM |
| O=C1/C(=C/c2ccc(OC(=O)c3ccccc3)cc2)CCC/C1=C\c1ccc(OC(=O)c2ccccc2)cc1 | inactive: > 100 µM |
| O=C(NCCO)Nc1c(C(F)(F)F)cc(-c2ccccc2)[nH]c1=O | inactive: > 100 µM |
| CNC(C)(C)Cc1ccc(Cl)cc1 | inactive: > 100 µM |
| CCCNC1=C2C[C@@H](C)C[C@@H](OC)[C@@H](OC(=O)CCCN)[C@H](C)/C=C(\C)[C@@H](OC(N)=O)[C@H](OC)/C=C\C=C(/C)C(=O)NC(=CC1=O)C2=O | inactive: 16.6 µM |
| COc1cccc2cc(C(=O)O)c(=O)oc12 | inactive: > 100 µM |
| Cn1/c(=N\c2ccc(Cl)cc2)sc2ccccc21 | inactive: 85.1 µM |
| CCNC(=O)COc1ccc(Br)cc1Br | inactive: > 100 µM |
| N[C@H](C(=O)O)[C@@H]1CC(Br)=NO1 | inactive: > 100 µM |
| CN(NC(=O)c1ccc(Cl)cc1)C1=NCCCCN1 | inactive: > 100 µM |
| S=c1c2ccccc2c(=S)n2n1CC=CC2 | inactive: > 100 µM |
| COc1ccc(/C=C2/NC(=S)N=C2Cl)cc1 | inactive: > 100 µM |
| CCCc1nc2c(n1CC)C(=O)c1ccccc1C2=O | inactive: 51.8 µM |
| Cn1c(N/N=C/c2ccc(Cl)cc2)nc(-c2ccc(Cl)cc2)c(C#N)c1=O | inactive: 20.2 µM |
| CC1=NN(c2nc(N)nc(-c3cc4ccccc4oc3=N)n2)C(C)(C)C1 | inactive: 17.2 µM |
| Oc1cccnc1CN1CCCCC1 | inactive: > 100 µM |
| CCOC(=O)C1=C(C)NC(=O)NC1c1ccc(N(CCCl)CCCl)cc1Cl (configuration not stated) | inactive: 18.1 µM |
| Cc1cc(S(=O)(=O)Nc2n[nH]c(-c3ccc(Cl)cc3)n2)c(SSc2cc(Cl)c(C)cc2S(=O)(=O)Nc2n[nH]c(-c3ccc(Cl)cc3)n2)cc1Cl | inactive: 28 µM |
| CC(C)(CN)CN | inactive: > 100 µM |
| C=C1C(=O)C23C(O)CC4C5(C)CCCC4(C(O)OC5)C2C(OC(C)=O)CC1C3O (configuration not stated) | inactive: 11.5 µM |
| COc1ccc(C2c3cc4c(cc3OC(NNS(=O)(=O)c3ccc(C)cc3)C2C)OCO4)cc1 (configuration not stated) | inactive: > 100 µM |
| Cc1cc([N+](=O)[O-])ccc1Nc1cccc(Cl)c1C | inactive: 16 µM |
| Cc1ccc(NC(=O)c2ccc(OP(=O)(O)Nc3ccc(C)cc3)cc2)cc1 | inactive: > 100 µM |

| Compound | GI50 |
| --- | --- |
| O=C(O)CCn1cnc2c(S)ncnc21 | inactive: > 100 µM |
| O=P(O)(OCC(O)O)OCC(O)O | inactive: > 100 µM |
| CCOC(=O)C1=C(Nc2ccc(NC3=C(C(=O)OCC)C(=O)CS3)cc2)SCC1=O | inactive: 16.4 µM |
| COc1ccc(C2C3=C(CCCC3=O)N(c3ccccc3)C3=C2C(=O)CCC3)cc1 | inactive: > 100 µM |
| CCOC(=O)c1c(C)nc2c3ccccc3c(C#N)c(C)n12 | inactive: > 100 µM |
| C=C=C(C)[Si](C)(C)C | inactive: > 100 µM |
| O=[N+]([O-])c1c(/C=N/Nc2ccccc2)oc(-c2ccc3c(c2)OCO3)c1-c1ccc2c(c1)OCO2 | inactive: 94.4 µM |
| N#Cc1c2c(c(Nc3ccc(F)cc3)n3c1nc1ccccc13)CCCC2 | inactive: > 100 µM |
| O=C(O)CN(CC(=O)O)C1CCCCC1N(CC(=O)O)CC(=O)NCCN=C=S (configuration not stated) | inactive: > 100 µM |
| Cc1nc(C(N)=O)c(N)n1CCN1CCN(C(=O)CCCCCCCCCCNC2NC=Nc3[nH]cnc32)CC1 (configuration not stated) | inactive: 41.4 µM |
| Cn1nc(-c2ccccc2)c2c(-c3ccccc3)c3cc(Cl)ccc3nc21 | inactive: > 100 µM |
| CC(=O)O[C@H]1CC[C@@]2(C)C(=CC[C@H]3[C@@H]4C/C(=C\c5ccc(N(C)C)cc5)[C@H](OC(C)=O)[C@@]4(C)CC[C@@H]32)C1 | inactive: 18.7 µM |
| CCc1cccc(C(C)C)c1NC1=C([n+]2ccc(C)cc2)C(=O)c2ccccc2C1=O.[O-][Cl+3]([O-])([O-])[O-] | inactive: 3.75 µM |
| Nc1nc(N)c(N=O)c(Nc2ccc(O)cc2)n1 | inactive: > 73.8 µM |
| CCOC(=O)NC(=O)c1cn(CCN2CCN(C(=O)NCCCCCCNC(=O)N3CCN(CCn4cc(C(=O)NC(=O)OCC)c(=O)[nH]c4=O)CC3)CC2)c(=O)[nH]c1=O | inactive: > 100 µM |
| N#Cc1c(-c2ccc(Cl)c(Cl)c2)c(-c2ccc(Cl)c(Cl)c2)nn(CC(=O)O)c1=O | inactive: > 100 µM |
| CC(=O)NC1C(=O)CC(c2ccccc2)N(C)C1c1ccccc1 (configuration not stated) | inactive: > 100 µM |
| C=CC(OC(C)=O)c1ccc(OC(=O)C(C)C)c(OC)c1 (configuration not stated) | inactive: 5.27 µM |
| Cc1ccc2nc(/C=N/c3ccc(Cl)cc3)cc(C)c2c1 | inactive: 71.3 µM |
| CCOC(=O)CC(=O)Nc1cccc2sc3ncccc3c(=O)c12 | inactive: 68.9 µM |
| COc1ccc(Cn2nc(OCc3ccccc3)c3cc([N+](=O)[O-])ccc32)cc1 | inactive: > 100 µM |
| CC(=O)OC1=C2CC[C@@H]3C(CC[C@@]4(C)C3CC[C@@H]4OC(C)=O)[C@@]2(C)CC(C#N)C1=O (some centres not stated) | inactive: 22 µM |
| COc1cc([C@@H]2OCC3C(c4ccc5c(c4)OCO5)OCC32)cc(OC)c1OC (some centres not stated) | inactive: > 100 µM |

Source: ChEMBL document CHEMBL1201862, “PubChem BioAssay data set” (2004)
